# Measurements: publication PMC12820563
# The list shows a part of the results. The list includes weakly bound sequences.
# Biological target: T1, MBP-FoxP3dN (UniProt Q99JB6)
# T1 sequence: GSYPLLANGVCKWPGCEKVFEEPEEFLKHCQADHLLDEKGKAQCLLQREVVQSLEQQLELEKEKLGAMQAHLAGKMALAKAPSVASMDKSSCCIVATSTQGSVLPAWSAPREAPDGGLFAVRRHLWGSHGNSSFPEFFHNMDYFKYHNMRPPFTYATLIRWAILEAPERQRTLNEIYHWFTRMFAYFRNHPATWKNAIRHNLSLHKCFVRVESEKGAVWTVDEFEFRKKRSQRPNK
# Experiment: PD-seq (MBP pull-down with sequencing)
# Conditions: 20 mM Tris-HCl pH 7.5, 100 mM NaCl, 1.5 mM MgCl2, 0.4 uM protein, 0.1 uM dsDNA library, 30 min, room temperature, amylose pull-down; high values mean tight binding; double strand, one strand shown
row,Sequence,binding signal (RPM ratio (pull-down/input))
1,GATGATTGTTCTCCCAGCTGATGAATTTATCTCTTCGAGTAAACAAATTTTCCTAATCTTTCTGTTCAAGCGCCATCTAC,0.685
2,GATGATTGTTCTCCCAGCTGATGAATTGCACCCCTCGAGTAAACAAATTTTCCTAATCTTTCTGTTCAAGCGCCATCTAC,0.825
3,GATGATTGTTCTCCCAGCTGATGAATTTCAAGAGTCGAGTAAACAAATTTTCCTAATCTTTCTGTTCAAGCGCCATCTAC,0.219
4,GATGATTGTTCTCCCAGCTGATGAATTTTGGGATTCGAGTAAACAAATTTTCCTAATCTTTCTGTTCAAGCGCCATCTAC,0.383
5,GATGATTGTTCTCCCAGCTGATGAATTGCGGGACTCGAGTAAACAAATTTTCCTAATCTTTCTGTTCAAGCGCCATCTAC,0.708
6,GATGATTGTTCTCCCAGCTGATGAATTGACGTCATCGAGTAAACAAATTTTCCTAATCTTTCTGTTCAAGCGCCATCTAC,0.769
7,GATGATTGTTCTCCCAGCTGATGAATTCGATACATCGAGTAAACAAATTTTCCTAATCTTTCTGTTCAAGCGCCATCTAC,0.67
8,GATGATTGTTCTCCCAGCTGATGAATTTTATTACTCGAGTAAACAAATTTTCCTAATCTTTCTGTTCAAGCGCCATCTAC,1.04
9,GATGATTGTTCTCCCAGCTGATGAATTCCTTTGTTCGAGTAAACAAATTTTCCTAATCTTTCTGTTCAAGCGCCATCTAC,0.692
10,GATGATTGTTCTCCCAGCTGATGAATTCGTGTTGTCGAGTAAACAAATTTTCCTAATCTTTCTGTTCAAGCGCCATCTAC,2.75
11,GATGATTGTTCTCCCAGCTGATGAATTACACCGGTCGAGTAAACAAATTTTCCTAATCTTTCTGTTCAAGCGCCATCTAC,0.357
12,GATGATTGTTCTCCCAGCTGATGAATTCGGAAGCTCGAGTAAACAAATTTTCCTAATCTTTCTGTTCAAGCGCCATCTAC,0.236
13,GATGATTGTTCTCCCAGCTGATGAATTGATCGTCTCGAGTAAACAAATTTTCCTAATCTTTCTGTTCAAGCGCCATCTAC,0.559
14,GATGATTGTTCTCCCAGCTGATGAATTGTTTGTTTCGAGTAAACAAATTTTCCTAATCTTTCTGTTCAAGCGCCATCTAC,7.87
15,GATGATTGTTCTCCCAGCTGATGAATTGTCCAACTCGAGTAAACAAATTTTCCTAATCTTTCTGTTCAAGCGCCATCTAC,0.318
16,GATGATTGTTCTCCCAGCTGATGAATTTCCTAGCTCGAGTAAACAAATTTTCCTAATCTTTCTGTTCAAGCGCCATCTAC,0.222

row,Sequence,binding signal (RPM ratio (pull-down/input))
1,GATGATTGTTCTCCCAGCTGATGAATTATCCCCGTCGAGTAAACAAATTTTCCTAATCTTTCTGTTCAAGCGCCATCTAC,0.206
2,GATGATTGTTCTCCCAGCTGATGAATTTAATGTATCGAGTAAACAAATTTTCCTAATCTTTCTGTTCAAGCGCCATCTAC,2.21
3,GATGATTGTTCTCCCAGCTGATGAATTCAGATCGTCGAGTAAACAAATTTTCCTAATCTTTCTGTTCAAGCGCCATCTAC,0.324
4,GATGATTGTTCTCCCAGCTGATGAATTCCCAAAGTCGAGTAAACAAATTTTCCTAATCTTTCTGTTCAAGCGCCATCTAC,0.162
5,GATGATTGTTCTCCCAGCTGATGAATTATCATGGTCGAGTAAACAAATTTTCCTAATCTTTCTGTTCAAGCGCCATCTAC,0.376
6,GATGATTGTTCTCCCAGCTGATGAATTTATGAAATCGAGTAAACAAATTTTCCTAATCTTTCTGTTCAAGCGCCATCTAC,0.396
7,GATGATTGTTCTCCCAGCTGATGAATTCAATGTCTCGAGTAAACAAATTTTCCTAATCTTTCTGTTCAAGCGCCATCTAC,1.61
8,GATGATTGTTCTCCCAGCTGATGAATTCGCTGTTTCGAGTAAACAAATTTTCCTAATCTTTCTGTTCAAGCGCCATCTAC,2.11
9,GATGATTGTTCTCCCAGCTGATGAATTACCAGGGTCGAGTAAACAAATTTTCCTAATCTTTCTGTTCAAGCGCCATCTAC,0.252
10,GATGATTGTTCTCCCAGCTGATGAATTCTTAAAGTCGAGTAAACAAATTTTCCTAATCTTTCTGTTCAAGCGCCATCTAC,0.242
11,GATGATTGTTCTCCCAGCTGATGAATTCGGCGCATCGAGTAAACAAATTTTCCTAATCTTTCTGTTCAAGCGCCATCTAC,1.17
12,GATGATTGTTCTCCCAGCTGATGAATTTTAATGTTCGAGTAAACAAATTTTCCTAATCTTTCTGTTCAAGCGCCATCTAC,1.76
13,GATGATTGTTCTCCCAGCTGATGAATTGGTTCCGTCGAGTAAACAAATTTTCCTAATCTTTCTGTTCAAGCGCCATCTAC,0.298
14,GATGATTGTTCTCCCAGCTGATGAATTTCCAGTATCGAGTAAACAAATTTTCCTAATCTTTCTGTTCAAGCGCCATCTAC,0.339
15,GATGATTGTTCTCCCAGCTGATGAATTCAGTGGGTCGAGTAAACAAATTTTCCTAATCTTTCTGTTCAAGCGCCATCTAC,0.623
